Assay results reported in patent EP4759829A1 (The University of Tokyo, dated 2025).
Where a chain is given by its changes, count along the chain named.

Target: T1, human HVEM extracellular domain recombinant protein (Sino Biological Japan Inc. 10334-H08H) (human, UniProt Q92956 39-202)
T1 construct: extracellular domain; Bought protein
T1 sequence (looked up): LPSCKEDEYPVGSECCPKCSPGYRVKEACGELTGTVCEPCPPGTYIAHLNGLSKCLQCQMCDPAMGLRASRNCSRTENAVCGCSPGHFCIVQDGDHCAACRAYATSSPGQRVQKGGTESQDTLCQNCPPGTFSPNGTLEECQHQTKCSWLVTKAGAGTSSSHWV
Assay: SPR (BIAcore T200), antibody captured by anti-human IgG on CM5 chip, HVEM extracellular domain as analyte

B1: humanized anti-human HVEM antibody (HV80) (Fc fusion)
chain: EVQLVESGGGLVQPGGSLRLSCAASGSIGSIHRWDWYRLCPGKQREWVATLNSEGGPTYADSVEGRFTISRDNSKNMVYLQMNSLRPEDTAVYRCSARTVPFEYWGQGTLVTVSSGPP[sequence of human IgG4 Fc omitted]
notes: also called humanized VHH-3_hIgG4Fc
Kd: 102 nM

B2: alpaca-human chimeric anti-human HVEM antibody (VHH-3_hIgG4Fc) (Fc fusion)
chain: B1 chain with E1Q, L11S, S74A, R86K, Q107R, L110Q
Kd: 67 nM
